Results published in article PMC4336329 (PLoS ONE, 2015).
Screen size: about 310,000 compounds; about 14,000 (4.5%) showed an effect of 50% or more. Effects have a minus sign here. The list shows a part of the results.

Target: human ether-à-go-go-related gene (hERG) potassium channel (human, UniProt Q12809)
Assay: primary screen, population patch clamp on CHO cells stably expressing hERG
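Also: peak tail current of the secondary pulse compared with the same well before compound.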

human ether-à-go-go-related gene (hERG) potassium channel, sequence (Q12809 whole entry, looked up): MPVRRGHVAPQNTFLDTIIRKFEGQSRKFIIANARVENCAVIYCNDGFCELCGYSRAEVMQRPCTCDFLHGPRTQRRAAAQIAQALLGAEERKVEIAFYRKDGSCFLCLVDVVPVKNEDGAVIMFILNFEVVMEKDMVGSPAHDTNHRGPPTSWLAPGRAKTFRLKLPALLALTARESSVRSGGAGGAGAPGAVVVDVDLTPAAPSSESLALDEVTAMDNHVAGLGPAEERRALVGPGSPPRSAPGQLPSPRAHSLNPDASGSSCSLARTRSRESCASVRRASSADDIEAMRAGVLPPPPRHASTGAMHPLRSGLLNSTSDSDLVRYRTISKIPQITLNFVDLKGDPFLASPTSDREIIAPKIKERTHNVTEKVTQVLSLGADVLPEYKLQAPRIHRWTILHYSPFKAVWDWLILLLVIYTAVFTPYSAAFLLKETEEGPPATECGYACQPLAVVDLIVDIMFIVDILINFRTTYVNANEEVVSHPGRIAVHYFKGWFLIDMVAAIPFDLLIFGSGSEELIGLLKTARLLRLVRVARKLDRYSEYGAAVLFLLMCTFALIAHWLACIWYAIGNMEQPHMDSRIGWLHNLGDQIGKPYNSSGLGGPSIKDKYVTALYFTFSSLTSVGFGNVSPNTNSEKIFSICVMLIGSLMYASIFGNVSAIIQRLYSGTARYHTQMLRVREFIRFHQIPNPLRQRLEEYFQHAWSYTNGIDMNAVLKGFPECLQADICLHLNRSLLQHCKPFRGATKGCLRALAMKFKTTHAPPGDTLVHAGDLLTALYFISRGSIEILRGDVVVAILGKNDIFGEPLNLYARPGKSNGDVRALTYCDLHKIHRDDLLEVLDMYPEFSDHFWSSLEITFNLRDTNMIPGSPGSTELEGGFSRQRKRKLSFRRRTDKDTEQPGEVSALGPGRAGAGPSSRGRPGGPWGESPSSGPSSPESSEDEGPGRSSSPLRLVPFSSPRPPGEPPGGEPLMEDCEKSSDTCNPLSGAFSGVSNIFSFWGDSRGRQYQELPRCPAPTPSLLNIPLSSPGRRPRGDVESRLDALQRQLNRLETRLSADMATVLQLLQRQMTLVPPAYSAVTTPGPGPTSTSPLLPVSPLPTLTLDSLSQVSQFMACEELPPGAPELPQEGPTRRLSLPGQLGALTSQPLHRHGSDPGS

Compound	hERG current change (%, negative = inhibition) at 10uM
Cc1cccc(OCc2nnc(SCC(=O)Nc3nccs3)o2)c1	-7.46%
COc1ccc2cc3cc(C(=O)Nc4ccc5c(c4)OCO5)oc3nc2c1	-4.86%
COc1ccc(C2c3c(ccc4ccccc34)Oc3ncn4nc(Cc5ccc(OC)c(OC)c5)nc4c32)cc1 (centres unmarked)	-1.13%
N#CC1=C(N)Oc2n[nH]c(CSc3ccccc3)c2C12C(=O)Nc1ccccc12 (centres unmarked)	-8.42%
O=C(OCCOc1cccc(Cl)c1)C1CCN(S(=O)(=O)c2ccccc2)CC1	-2.75%
O=C(O)CCc1nn2c3ccccc3n(CC(=O)c3ccccc3)c2nc1=O	0.719%
CC(=O)NC1C(=O)N=C(SCc2ccccc2)NC1=O (centres unmarked)	5.93%
COc1ccc(C2C(C(C)=O)=C(O)C(=O)N2Cc2ccccc2)c(OC)c1 (centres unmarked)	15.2%
CCn1c(C)nc2cc(N)ccc21.Cl	0.38%
CCOC(=O)C1C(=O)OC(C)(C)C1C(C)C(=O)c1ccccc1 (centres unmarked)	31.8%
O=C(COC(=O)c1cn(-c2ccccc2)nc1-c1ccccc1)Nc1ncc(Cl)cc1Cl	-14%
CN(C)S(=O)(=O)c1ccc(S(=O)(=O)N(Cc2ccco2)Cc2ccccc2Cl)cc1	-4.56%
S=c1[nH]nc(CCc2ccccc2)n1Cc1ccccc1	10.6%
O=C1CC[C@@H](C(=O)O)N1	0.184%
C[C@H](c1ccccc1)n1nnc(COCc2ccccc2)c1C#CCOCc1ccccc1	-1.39%
O=C(OCC(=O)N1CCN(c2ccccc2)CC1)c1cccc([N+](=O)[O-])c1	-28.2%
O=C(O)Cn1nc(-c2ccccc2)ccc1=O	9.99%
Cc1c(C)n(Cc2ccccc2)c2ncnc(NCCO)c12	-9.23%
O=C(CCNC(=O)c1ccccc1)NCCCc1ccccc1	6.54%
O=C(CN(C(=O)CNS(=O)(=O)c1ccccc1)C1CCCC1)NCC1CCCO1 (centres unmarked)	5.82%
CCCCC(NC(=O)c1ccc(C#N)cc1)C(=O)NCCC (centres unmarked)	-27.6%
COCCCNc1nc2ccccc2nc1NS(=O)(=O)c1ccccc1	29.1%

Compound	hERG current change (%, negative = inhibition) at 10uM
CCn1cc(/C=C(\NC(=O)c2ccccc2)C(=O)NCCCN2CCOCC2)c2ccccc21	3.43%
O=C1c2ccccc2C(O)N1c1ccccc1 (centres unmarked)	13.8%
CCOC(=O)c1cc(-c2cc3ccccc3o2)nc2c1c(=O)[nH]c(=O)n2CCOC	9.66%
CCN(CC)c1cc(C)c2cc(NC(=O)c3ccccc3F)ccc2n1	-81.3%
COc1ccc(C(=O)Nc2ccc(O)c3ccccc23)cc1	13.9%
Cc1nonc1C1CCCN1C(=O)c1cc(COc2cccc(C(F)(F)F)c2)on1 (centres unmarked)	5.53%
CCOC(=O)CSc1nnc(CNC(=O)c2cc(OCC)c(OCC)c(OCC)c2)n1C	-7.36%
Cc1nc(SCC(=O)NCc2ccco2)c2c(=O)n(C)c(=O)n(CC(C)C)c2n1	12.1%
Cn1c(=O)c(-c2cc(=O)[nH][nH]2)c(O)c2ccccc21	9.49%
O=C(CCN1C(=O)c2ccncc2C1=O)Nc1cc(F)ccc1F	8.13%
COc1ccc(N2CCN(CC(=O)Nc3cc(C)cc(C)c3)CC2)cc1	-13.3%
CC(=O)Cn1c(CN2CCCCC2)nc2ccccc2c1=O	4.1%
O=C(O)CCCCCNC(=O)c1ccc(C(=O)NCCCCCC(=O)O)cc1	15.1%
CCCCNC(=O)C(Cc1ccccc1)NS(=O)(=O)c1ccc2c(c1)c(=O)n(C)c(=O)n2C (centres unmarked)	-13.7%
Cn1nnnc1SCC(=O)Nc1ccc(Oc2ccccc2)cc1	-24.1%
COCC(=O)Nc1nc(-c2ccc(C)cc2)c(C)s1	-9.29%
Nc1nc(SCc2ccccc2)[nH]c(=O)c1-c1ccccc1	-2.18%
COc1ccccc1N1C(=O)CC(Sc2nc(C)cc(C)n2)C1=O (centres unmarked)	-4.62%
COc1ccc(C(=O)N2CCNC(=O)C2CC(=O)Nc2cccc(Cl)c2Cl)cc1 (centres unmarked)	-34.2%
COCCCn1c(Cc2csc(Nc3ccc(F)cc3)n2)nnc1SCC(N)=O	-5.91%
O=C(CN1C(=O)NC2(CCCC2)C1=O)Nc1ccccc1N1CCCC1	19.1%
CC(=O)NC12CC3CC(C1)CC(C(=O)N1CCN(S(=O)(=O)c4cccc(F)c4)CC1)(C3)C2	-26.3%

Compound	hERG current change (%, negative = inhibition) at 10uM
COc1cccc(C2C(C(=O)c3ccco3)=C(O)C(=O)N2CCN(C)C)c1OC (centres unmarked)	8.87%
Cc1sc2ncnc(N3CCC(C(=O)NNC(=O)c4ccccc4Cl)CC3)c2c1C	-22.2%
CCCOc1ccc(OCCn2nc(C(=O)O)c3ccccc3c2=O)cc1	2.96%
COc1ccc(S(=O)(=O)N(C(C)=O)c2ccc(OC(C)=O)c3ccccc23)cc1[N+](=O)[O-]	4%
COc1ccc(-c2cc3ccccc3n2CC(O)Cn2nc(C)cc2C)cc1 (centres unmarked)	4.62%
Cc1noc(C)c1COc1ccc(C(=O)N(C)CCOc2ccccc2)cc1	-26.2%
O=C(COc1ccc([N+](=O)[O-])cc1)Nc1ccccc1N1CCCC1	-21.8%
O=[N+]([O-])c1cccc(-c2ccc(C(=S)N3CCOCC3)o2)c1	-9.78%
COC(=O)c1cc(S(=O)(=O)C(C)C)c(S(C)=O)s1 (centres unmarked)	14.9%
O=C(c1cc([N+](=O)[O-])ccc1N1CCCC1)N1CCCC1	-0.904%
Cc1ccc(NC(=O)CSc2ccc3c(c2)OCCO3)nc1	3.51%
COc1ccc(/C=N/NC(=O)c2ccc(NC(C)=O)cc2)cc1COc1ccc(F)cc1F	14.8%
COc1ccc(C(=O)COc2ccccc2C(=O)Nc2ccccc2)cc1	18.6%
O=C(NCCOc1ccc(F)cc1)C1CCC(=O)N(CCc2ccccn2)C1 (centres unmarked)	-8.19%
O=C(Nc1ccccc1N1CCCC1)C1CCN(S(=O)(=O)c2ccccc2C(F)(F)F)CC1	-14.9%
O=C(N/N=C/c1cccc([N+](=O)[O-])c1)c1ccc(CN2CCOCC2)cc1	-19%
COc1ccc(C(=O)N[C@H](C(=O)Nc2sccc2C(N)=O)C(C)C)cc1	12.8%
CCC(c1nnc(SCC(=O)Nc2nnc(-c3ccccc3)o2)n1Cc1ccccc1)N(C)C (centres unmarked)	12.9%
CCOc1ccc(N(CC(=O)NC2CCCCCC2)S(=O)(=O)c2c(C)[nH]c(=O)[nH]c2=O)cc1	35.3%
CCn1c(SCC(=O)NC2=NCCS2)nnc1C(C)NC(=O)c1ccccc1F (centres unmarked)	13.7%
COc1ccc(OCC(=O)N/N=C2\CCCc3ccccc32)cc1	-11.6%
CCN1CCN(Cc2cccc(Oc3ccccc3)c2)CC1	-35.9%

Compound	hERG current change (%, negative = inhibition) at 10uM
COc1ccccc1N1CCN(C(CNS(=O)(=O)c2cc(F)ccc2F)c2cccnc2)CC1 (centres unmarked)	-35%
O=S(=O)(Nc1nc2ccccc2nc1NCCO)c1cccc(Cl)c1	10.4%
CN(C)S(=O)(=O)N1CCN(c2ccc([N+](=O)[O-])c(NC3CC3)c2)CC1	7.44%
COc1cc(/C=N/NC(=O)c2ccc(CSc3nc4ccccc4[nH]3)cc2)cc(OC)c1OC	-8.35%
CC(=O)c1ccc(O)c(CC=C(C)C)c1O	2.1%
CC(=O)c1ccc(NC(=O)C2CCCN(C(=O)c3ccc(Cl)cc3)C2)cc1 (centres unmarked)	-29.7%
CCCNC(=O)C1(CC2CC(c3ccccc3)=NO2)CCN(C(=O)C2(C)CC2)CC1 (centres unmarked)	-17%
COc1ccc(F)cc1C(=O)C1CCCN(Cc2cccn2-c2ccccn2)C1 (centres unmarked)	-83.5%
CCOC(=O)c1cnc(-n2nc(C)cc2C)nc1Oc1ccc(C(=O)OC)cc1	16.6%
CC1(C)SC(=S)N(NC(=O)Nc2ccccc2)C1N(O)C(=O)Nc1ccccc1 (centres unmarked)	12.7%
COc1ccc(CCN)cc1OC	7.69%
Cc1onc(-c2ccccc2Cl)c1C(=O)Nc1cnn(Cc2ccccc2)c1	-16.3%
CC(=O)C1=C(C)N(Cc2ccccc2)C(=O)N[C@H]1c1cccc(C(F)(F)F)c1	-14.1%
CS(=O)(=O)N(CC(=O)N1CCc2ccccc2C1)Cc1ccc(Cl)cc1	-25.8%
CCC(C)C(NC(=O)C1CCC(C)CC1)C(=O)NCc1ccco1 (centres unmarked)	12.5%
COc1cccc(/C(O)=C2\C(=O)C(=O)N(c3ccccn3)C2c2ccccc2OC)c1 (centres unmarked)	8.82%
CCCCN(C(=O)NC(=O)Nc1ccccc1C)S(C)(=O)=O	15.9%
COc1ccccc1NC(=O)Cn1cc(C#N)c2ccccc21	-9.01%
Cc1ccc(O)c(CNc2nc3ccccc3n2C)c1	2.18%
O=C(NCC(=O)N1CCC(Cc2ccccc2)CC1)c1ccc(Cl)cc1	-23.3%
